In paper PMC9911399, “Two distinct binding modes provide the RNA-binding protein RbFox with extraordinary sequence specificity”:
Substitutions are numbered along the chain they refer to; changes in the protein carry UniProt numbers. Some of the results follow.

T1: RBFOX1 RRM RbFoxmut (Fox-RRM*) (Homo sapiens, UniProt Q9NWB1 109-208, R118D;E147R;N151S;E152T)
T1 sequence: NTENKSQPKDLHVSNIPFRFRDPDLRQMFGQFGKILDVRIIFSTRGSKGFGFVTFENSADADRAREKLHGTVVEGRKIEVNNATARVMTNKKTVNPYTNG

B1: ACCGAGC (DNA:RNA)
RNA: GGGAGACCGGAAUUCAGAUUGUCCACCGAGCUUAAAUCCCGUCGUAGCCACCA
DNA 1: CAATCTGAATTCCGGTCTCCC
DNA 2: TGGTGGCTACGACGGGATT
B2: CAGUAGA (DNA:RNA)
RNA: B1 RNA with A25C, C26A, C27G, G28U, C31A
DNA 1: CAATCTGAATTCCGGTCTCCC
DNA 2: TGGTGGCTACGACGGGATT
B3: GCCGGUC (DNA:RNA)
RNA: B1 RNA with A25G, A29G, G30U
DNA 1: CAATCTGAATTCCGGTCTCCC
DNA 2: TGGTGGCTACGACGGGATT
B4: ACCCAAA (DNA:RNA)
RNA: B1 RNA with G28C, G30A, C31A
DNA 1: CAATCTGAATTCCGGTCTCCC
DNA 2: TGGTGGCTACGACGGGATT
B5: CGCUUUC (DNA:RNA)
RNA: B1 RNA with A25C, C26G, G28U, A29U, G30U
DNA 1: CAATCTGAATTCCGGTCTCCC
DNA 2: TGGTGGCTACGACGGGATT
B6: AAAUCCG (DNA:RNA)
RNA: B1 RNA with C26A, C27A, G28U, A29C, G30C, C31G
DNA 1: CAATCTGAATTCCGGTCTCCC
DNA 2: TGGTGGCTACGACGGGATT
B7: UAAUUUC (DNA:RNA)
RNA: B1 RNA with A25U, C26A, C27A, G28U, A29U, G30U
DNA 1: CAATCTGAATTCCGGTCTCCC
DNA 2: TGGTGGCTACGACGGGATT
B8: AUAGAGU (DNA:RNA)
RNA: B1 RNA with C26U, C27A, C31U
DNA 1: CAATCTGAATTCCGGTCTCCC
DNA 2: TGGTGGCTACGACGGGATT
B9: AUGUAUC (DNA:RNA)
RNA: B1 RNA with C26U, C27G, G28U, G30U
DNA 1: CAATCTGAATTCCGGTCTCCC
DNA 2: TGGTGGCTACGACGGGATT
B10: CAACAGG (DNA:RNA)
RNA: B1 RNA with A25C, C26A, C27A, G28C, C31G
DNA 1: CAATCTGAATTCCGGTCTCCC
DNA 2: TGGTGGCTACGACGGGATT
B11: CUAGCUU (DNA:RNA)
RNA: B1 RNA with A25C, C26U, C27A, A29C, G30U, C31U
DNA 1: CAATCTGAATTCCGGTCTCCC
DNA 2: TGGTGGCTACGACGGGATT
B12: UAAGGCG (DNA:RNA)
RNA: B1 RNA with A25U, C26A, C27A, A29G, G30C, C31G
DNA 1: CAATCTGAATTCCGGTCTCCC
DNA 2: TGGTGGCTACGACGGGATT
B13: CAAGGUC (DNA:RNA)
RNA: B1 RNA with A25C, C26A, C27A, A29G, G30U
DNA 1: CAATCTGAATTCCGGTCTCCC
DNA 2: TGGTGGCTACGACGGGATT
B14: UCCUGCA (DNA:RNA)
RNA: B1 RNA with A25U, G28U, A29G, G30C, C31A
DNA 1: CAATCTGAATTCCGGTCTCCC
DNA 2: TGGTGGCTACGACGGGATT
B15: UAUAAUG (DNA:RNA)
RNA: B1 RNA with A25U, C26A, C27U, G28A, G30U, C31G
DNA 1: CAATCTGAATTCCGGTCTCCC
DNA 2: TGGTGGCTACGACGGGATT
B16: GGUCUCG (DNA:RNA)
RNA: GGGAGACCGGAAUUCAGAUUGUCCGGUCUCGUUAAAUCCCGUCGUAGCCACCA
DNA 1: CAATCTGAATTCCGGTCTCCC
DNA 2: TGGTGGCTACGACGGGATT
B17: CGAGCUC (DNA:RNA)
RNA: B1 RNA with A25C, C26G, C27A, A29C, G30U
DNA 1: CAATCTGAATTCCGGTCTCCC
DNA 2: TGGTGGCTACGACGGGATT
B18: AUGAGUC (DNA:RNA)
RNA: B1 RNA with C26U, C27G, G28A, A29G, G30U
DNA 1: CAATCTGAATTCCGGTCTCCC
DNA 2: TGGTGGCTACGACGGGATT
B19: UAGGGAC (DNA:RNA)
RNA: B1 RNA with A25U, C26A, C27G, A29G, G30A
DNA 1: CAATCTGAATTCCGGTCTCCC
DNA 2: TGGTGGCTACGACGGGATT
B20: CACGCCA (DNA:RNA)
RNA: B1 RNA with A25C, C26A, A29C, G30C, C31A
DNA 1: CAATCTGAATTCCGGTCTCCC
DNA 2: TGGTGGCTACGACGGGATT
B21: GCCAGCC (DNA:RNA)
RNA: B1 RNA with A25G, G28A, A29G, G30C
DNA 1: CAATCTGAATTCCGGTCTCCC
DNA 2: TGGTGGCTACGACGGGATT
B22: AAAUAAA (DNA:RNA)
RNA: B1 RNA with C26A, C27A, G28U, G30A, C31A
DNA 1: CAATCTGAATTCCGGTCTCCC
DNA 2: TGGTGGCTACGACGGGATT
B23: UGCCUUU (DNA:RNA)
RNA: B16 RNA with G25U, U27C, C30U, G31U
DNA 1: CAATCTGAATTCCGGTCTCCC
DNA 2: TGGTGGCTACGACGGGATT
B24: CUGGCUU (DNA:RNA)
RNA: B1 RNA with A25C, C26U, C27G, A29C, G30U, C31U
DNA 1: CAATCTGAATTCCGGTCTCCC
DNA 2: TGGTGGCTACGACGGGATT
B25: AGACCCU (DNA:RNA)
RNA: B16 RNA with G25A, U27A, U29C, G31U
DNA 1: CAATCTGAATTCCGGTCTCCC
DNA 2: TGGTGGCTACGACGGGATT
B26: UACAUGU (ssRNA)
RNA: UACAUGU
B27: UAAAUCC (DNA:RNA)
RNA: B16 RNA with G25U, G26A, U27A, C28A, G31C
DNA 1: CAATCTGAATTCCGGTCTCCC
DNA 2: TGGTGGCTACGACGGGATT
B28: AUGUGCA (DNA:RNA)
RNA: B1 RNA with C26U, C27G, G28U, A29G, G30C, C31A
DNA 1: CAATCTGAATTCCGGTCTCCC
DNA 2: TGGTGGCTACGACGGGATT
B29: AAGACGC (DNA:RNA)
RNA: B1 RNA with C26A, C27G, G28A, A29C
DNA 1: CAATCTGAATTCCGGTCTCCC
DNA 2: TGGTGGCTACGACGGGATT
B30: UUCGAAG (DNA:RNA)
RNA: B1 RNA with A25U, C26U, G30A, C31G
DNA 1: CAATCTGAATTCCGGTCTCCC
DNA 2: TGGTGGCTACGACGGGATT
B31: AAUGGUU (DNA:RNA)
RNA: B1 RNA with C26A, C27U, A29G, G30U, C31U
DNA 1: CAATCTGAATTCCGGTCTCCC
DNA 2: TGGTGGCTACGACGGGATT

Assays:
[1] = target: T1, RBFOX1 RRM RbFoxmut (Fox-RRM*); assay: EMSA; HiTS-Eq, 1 nM pool, 10 min; buffer printed only for the single-RNA assays: 10 mM Tris pH 7.5, 150 mM NaCl, 3.4 mM EDTA, 0.001% NP-40, 30 C; conditions: tags: His6 N-terminal (pET28a); label: 5' 32P
Procedure, shortened: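 Purified RbFox RRM, wild type or mutant, was incubated for 10 min in 50 µL with 1 nM of a 5′-radiolabelled RNA pool carrying 7 randomized nucleotides, whose flanks were annealed to DNA oligonucleotides, over a series of increasing protein concentrations. Unbound RNA was resolved on 8% native PAGE, cut out, reverse-transcribed, barcoded by PCR and sequenced on an Illumina HiSeq 2500. Relative association constants were derived from changes in read counts for each RNA species versus the control reaction and normalised to the cognate motif.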

[2] = target: T1, RBFOX1 RRM RbFoxmut (Fox-RRM*); assay: competition; 10 mM Tris pH 7.5, 150 mM NaCl, 3.4 mM EDTA, 0.001% NP-40, 30 C; conditions: tags: His6 N-terminal (pET28a)

Binder	binding signal [1]	binding signal [2] [nM]
B1	0.0932 KA relative to UGCAUGU	–
B2	0.122 KA relative to UGCAUGU	–
B3	0.21 KA relative to UGCAUGU	–
B4	0.102 KA relative to UGCAUGU	–
B5	0.0608 KA relative to UGCAUGU	–
B6	0.0633 KA relative to UGCAUGU	–
B7	0.0706 KA relative to UGCAUGU	–
B8	0.15 KA relative to UGCAUGU	–
B9	0.407 KA relative to UGCAUGU	–
B10	0.0792 KA relative to UGCAUGU	–
B11	0.112 KA relative to UGCAUGU	–
B12	0.108 KA relative to UGCAUGU	–
B13	0.101 KA relative to UGCAUGU	–
B14	0.24 KA relative to UGCAUGU	–
B15	0.0948 KA relative to UGCAUGU	–
B16	0.186 KA relative to UGCAUGU	–

Binder	binding signal [1]	binding signal [2] [nM]
B17	0.06 KA relative to UGCAUGU	–
B18	0.139 KA relative to UGCAUGU	–
B19	0.0789 KA relative to UGCAUGU	–
B20	0.0797 KA relative to UGCAUGU	–
B21	0.075 KA relative to UGCAUGU	–
B22	0.115 KA relative to UGCAUGU	–
B23	0.0953 KA relative to UGCAUGU	–
B24	0.0916 KA relative to UGCAUGU	–
B25	0.0627 KA relative to UGCAUGU	–
B26	–	2140
B27	0.0484 KA relative to UGCAUGU	–
B28	0.217 KA relative to UGCAUGU	–
B29	0.0546 KA relative to UGCAUGU	–
B30	0.097 KA relative to UGCAUGU	–
B31	0.0746 KA relative to UGCAUGU	–
